“And” between values parts separate entries of the source, which are not always exact repeats. Equal entries are not always repeated. In all, about 420,000 compounds went through this assay and about 50,000 (12%) were called active. This list was built around the results that the source calls inconclusive (neither active nor inactive); the mix of calls is not that of the screen. The call rests on the fitted dose curve; in most records, active means well fitted inhibition curve with a large enough effect; inconclusive means small, poorly fitted or top-dose-only effect; inactive means flat fitted curve, though single readings scatter. Potencies beside an inconclusive call are fits to weak or partial responses and may not hold up. A structure can be active in one record and inactive in another.
experiment: qHTS for Inhibitors of human tyrosyl-DNA phosphodiesterase 1 (TDP1): qHTS in cells in presence of CPT; conditions: chicken DT40 Tdp1-/-;hTDP1 cells + 20 nM CPT, ATP luminescence, 48 h; activity change, negative = growth inhibition: at 46.2 µM (top of the series) unless noted; further: nearly all actives have a fitted effect of over 55% in size
In short: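 Chicken DT40 Tdp1-/- cells complemented with human TDP1, 400 cells/well, exposed to compounds plus 20 nM camptothecin for at least 48 h at 37 C; viability read as ATP content by CellTiter-Glo luminescence.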
On the % scale 0 is the no-effect control and ±100 the full control effect; potency means the concentration at half of the fitted maximal effect; tags describe the fitted curve by direction and shape.

Compound	Potency	activity change, negative = growth inhibition
Cc1cccc(N2CCN(S(=O)(=O)c3nnc(NC(=O)c4ccc(Cl)cc4)s3)CC2)c1	inconclusive: 5.8 µM [inhibitor, full curve]	
Cc1ccc(NC(=O)c2cccc(NC3=NC4CS(=O)(=O)CC4S3)c2)cc1 (configuration not stated)		inactive: -0.868%
CCC(C)C(=O)Nc1ccccc1N1CCN(c2ccc(F)cc2)CC1 (configuration not stated)	inconclusive: 18.4 µM [inhibitor, single point]	
O=C1c2ccccc2NC(c2ccc(O)c(O)c2)N1c1ccccc1Cl (configuration not stated)		inactive: -18.5%
Cc1cc(C)cc(C(=O)N(Cc2ccco2)c2c(N)n(Cc3ccccc3)c(=O)[nH]c2=O)c1		inactive: 1.16%
O=S(=O)(NCC(c1ccco1)N1CCCCC1)c1ccccc1C(F)(F)F (configuration not stated)	inconclusive: 32.6 µM [inhibitor, single point]	
Cc1ccccc1C(=O)N1CCC(C(=O)Nc2cc(C(F)(F)F)ccc2N2CCCC2)CC1		inactive: -11%
CC(C)(C)n1nnnc1CN1C2CCC1CC(NC(=O)Nc1ccccc1)C2 (configuration not stated)	inconclusive: 29.1 µM [inhibitor, single point]	
COC(=O)c1c(-c2ccc(SC)cc2)sc2ccc(OC)cc12	inconclusive: 1.03 µM [inhibitor, full curve, poor fit]	
COc1ccccc1-c1cc2ccccc2[nH]1		inactive: -29.9%
COc1ccccc1NC(=O)c1sc2nc(C)c(C(=O)Nc3ccc(Cl)cc3)c(-c3ccc(Br)cc3)c2c1N	inconclusive: 25.9 µM [inhibitor, single point]	
CC(C)(C)C(=O)O/N=C(\N)c1ccc(Oc2cc(Cl)cc(Cl)c2)c([N+](=O)[O-])c1	inconclusive: 20.6 µM [inhibitor, single point]	
Cc1ccc(C)c(N2CCN(CC3CC=CCC3)CC2)c1 (configuration not stated)	inconclusive: 29.1 µM [inhibitor, single point]	
Cc1ccccc1CN1CCC(CNC(=O)c2cc3ccc4cccnc4c3[nH]2)CC1	active: 16.4 µM	
COc1ccc(-c2cc(=O)oc3c(C)c(OCC(=O)NCCCn4ccnc4)ccc23)cc1	inconclusive: 10.3 µM [inhibitor, partial curve]	
COc1ccc(C2/C(=C(/O)c3ccc4c(c3)CC(C)O4)C(=O)C(=O)N2Cc2ccncc2)cc1 (configuration not stated)		inactive: 29.7%
C=CCn1c(CCC(O)CCCCC)n[nH]c1=S (configuration not stated)		inactive: -9.19%
Cc1ccccc1OCc1nc2ccccc2c(=O)n1N	inconclusive: 8.2 µM [inhibitor, partial curve]	
O=C(CCc1c[nH]c2ccccc12)N1CCN(c2ccc(O)cc2)CC1	active: 5.17 µM	
COC(=O)C1=C(C)N(CCCC(=O)O)C(=O)NC1c1cccs1 (configuration not stated)		inactive: -5.24%
COc1ccc(NC(=O)CCCCC(=O)Nc2ccc(OC)cc2OC)c(OC)c1		inactive: -9.21%
Cc1ccc(NC(=O)c2ncn(CC(=O)NCc3ccccc3)n2)cc1C		inactive: -13.6%
CCc1cccc(NC(=O)C2CCCN(S(=O)(=O)c3cnc[nH]3)C2)c1 (configuration not stated)		inactive: -6.15%
CN(C)c1ccnc2sc(C(=O)NCc3ccccc3)c(N)c12	active: 16.4 µM	

Compound	Potency	activity change, negative = growth inhibition
Cc1ccc(S(=O)(=O)Nc2cccc(-c3ccc(N4CCCCCC4)nn3)c2)c(C)c1	inconclusive: 20.6 µM [inhibitor, single point]	
CCN(CC)S(=O)(=O)c1ccc(Cl)c(NC(=O)COC(=O)c2ccc([N+](=O)[O-])o2)c1	inconclusive: 32.6 µM [inhibitor, single point]	
CCOc1ccccc1Oc1c(C)oc2c(CN3CCN(C)CC3)c(O)ccc2c1=O	inconclusive: 29.1 µM [inhibitor, single point]	
NCCOB(c1ccccc1)c1ccccc1	inconclusive: 29.9 µM [inhibitor, single point] and inconclusive: 23.1 µM [inhibitor, single point] and inconclusive: 25.9 µM [inhibitor, single point]	
O=S(=O)(Nn1c(O)c(C=C2N=c3ccccc3=N2)sc1=S)c1ccccc1	inconclusive: 29.1 µM [inhibitor, single point]	
COc1cccc(CN(C)Cc2c(O)ccc3ccccc23)c1		inconclusive: -19.4% [inhibitor]
COc1ccc(C(=O)NC(=S)Nc2ccc(CN3CCOCC3)cc2)cc1	inconclusive: 29.1 µM [inhibitor, single point]	
COC(=O)[C@@]12C[C@@H](CC(=O)NCCCCc3ccccc3)C(=O)N(Cc3ccccc3)C1=CCC(C)(C)C2	inconclusive: 29.1 µM [inhibitor, single point]	
CCN1CCCC1CN(Cc1cc2ccc(C)cc2[nH]c1=O)C(=S)Nc1ccccc1OC (configuration not stated)	inconclusive: 16.4 µM [inhibitor, single point]	
COc1ccc(S(=O)(=O)Nc2ccc3cn[nH]c3c2)cc1C		inactive: -18.1%
Cc1cc(C(=O)CSc2nnc(-c3ccncc3)n2-c2ccccc2)c(C)n1C	inconclusive: 4.11 µM [inhibitor, partial curve]	
CN(C(=O)c1ccc(S(=O)(=O)N2CCCC2)cc1)C1CCS(=O)(=O)C1 (configuration not stated)	inconclusive: 29.1 µM [inhibitor, single point]	
Cc1cc(C)c(-c2csc(NC(=O)C3=COCCO3)n2)cc1C	active: 23.1 µM	
CC1CC(=O)Nc2ccccc2N1C(=O)COc1ccc2ccccc2c1 (configuration not stated)	inconclusive: 20.6 µM [inhibitor, single point]	
CC1(C)C=Cc2cc3ccc(=O)oc3cc2O1	inactive and active: 14.6 µM	
Cc1ccc(CN2CCC(C(=O)Nc3ccc(Oc4cccnc4)cc3)CC2)cc1	active: 18.4 µM	
O=C1CCc2cc(S(=O)(=O)NC(C(=O)Nc3ccc(F)cc3)c3ccccc3)ccc2N1 (configuration not stated)		inconclusive: -31.8% [inhibitor]
Cc1ccc(/C=N\NC(=O)c2ccc3c(c2)OCO3)o1		inactive: 7.08%
CC(=O)Oc1ccc2occ(/C=N/c3cc(=O)[nH]c(=S)[nH]3)c(=O)c2c1	inconclusive: 20.6 µM [inhibitor, single point]	
Cc1sc2nc(CSc3ncn[nH]3)[nH]c(=O)c2c1C	inconclusive: 25.9 µM [inhibitor, single point]	
CCN(c1ccccc1)S(=O)(=O)c1ccc(NC(=O)c2cc(=O)c3c(C)cc(C)cc3o2)cc1		inactive: 2.38%
CCOc1ccc(-c2nc(-c3ccncc3)no2)cc1OCC		inactive: -17.4%
Cc1csc(/C(C#N)=N/O)n1		inactive: 14.6%
CCC1CCCCN1C(=S)NC(=O)c1cccs1 (configuration not stated)	inconclusive: 29.1 µM [inhibitor, single point]	

Compound	Potency	activity change, negative = growth inhibition
CCCC(=O)NC(=S)Nc1cccc(C(C)=O)c1		inactive: 9.2%
CCN(c1ccc(OC)cc1)S(=O)(=O)c1csc(C(N)=O)c1		inconclusive: -32.4% [inhibitor]
CC(=O)OCc1nc2ccccc2s1	inconclusive: 6.31 µM [inhibitor, partial curve, poor fit]	
S=C(NCCc1ccncc1)Nc1cccc2ccccc12		inactive: 7.54%
COc1cc(OC)nc(Nc2nc(C(N)Cc3ccccc3)cs2)n1 (configuration not stated)	inconclusive: 20.6 µM [inhibitor, single point]	
COC(=O)CCC(=O)N1CCCC(N2CCN(c3ccc(OC)cc3)CC2)C1 (configuration not stated)		inactive: 3.76%
Cc1cccc(-n2ncc3c2CCCC3NC(=O)c2ccc[n+]([O-])c2)c1C (configuration not stated)	active: 11.6 µM	
COC(=O)Nc1ccc(S(=O)(=O)Nc2cccc3ccccc23)cc1	inconclusive: 23.1 µM [inhibitor, partial curve]	
COc1ccccc1Cn1c(-c2ccccc2OC)nc2ccccc21	inconclusive: 29.1 µM [inhibitor, single point]	
O=C(Nc1ccc(F)cc1F)c1cc2nc3c(c(C(F)(F)F)n2n1)CCCC3		inactive: -29.2%
Cc1nc2nc(CNC(=O)c3cccc(F)c3)nn2c(C)c1CCC(=O)Nc1ccc(F)cc1		inactive: 1.96%
O=C(COc1ccc2ccccc2c1)Nc1ccc(O)c(-c2nc3ccccc3o2)c1	inconclusive: 22.4 µM [inhibitor, single point]	
CCc1nc2c(OCc3ccc(C(F)(F)F)cc3)cccn2c1N(C)C(=O)c1ccco1	inconclusive: 18.4 µM [inhibitor, single point]	
CCOC(=O)c1cnc2c(C)cccc2c1NCCCN1CCOCC1		inactive: -13.9%
COc1cc2c(cc1OC)C(COc1ccc(F)cc1)N(C(=O)C(C)C)CC2 (configuration not stated)	inconclusive: 25.9 µM [inhibitor, single point]	
CC(C)c1cnc2c(c1SCc1ccc([N+](=O)[O-])cc1)c(=O)n(C)c(=O)n2C	inconclusive: 23.1 µM [inhibitor, single point]	
O=C(C1CCCN(S(=O)(=O)c2ccc(Br)cc2)C1)N1CCN(Cc2ccccc2)CC1 (configuration not stated)	active: 16.4 µM	
COCCNC(=S)N/N=C(\C)c1ccccc1F	inconclusive: 29.1 µM [inhibitor, single point]	
CN1CCCN(Cc2nc(-c3cccc(C(F)(F)F)c3)no2)CC1	inconclusive: 32.6 µM [inhibitor, single point]	
CCOc1cccc(NC(=O)c2ccc(S(=O)(=O)N(C)C)cc2)c1	inconclusive: 25.9 µM [inhibitor, single point]	
CCOc1ccc(NS(=O)(=O)c2ccc3[nH]cc(C(=O)N4CCCC4)c(=O)c3c2)cc1		inactive: -1.09%
N/C(=N\OC(=O)c1cccc2ccccc12)c1ccncc1		inactive: -24.6%
Cc1cccc(N2CCN(CC(=O)NCC3CCCCC3)CC2)c1C	inconclusive: 7.31 µM [inhibitor, partial curve]	
O=C(CSc1nnc(-c2ccc(Cl)cc2)n1Cc1ccco1)c1cccs1	inconclusive: 29.1 µM [inhibitor, single point]	

From PubChem BioAssay AID686979 (National Center for Advancing Translational Sciences (NCATS), 2013)
